In all, about 33,000 sequences were measured (“E-score (-0.5 to 0.5)”: median about -0.054, highest 2% from about 0.35 on). Some of the results follow.
Target: T1, Stb5 (UniProt P38699)
T1 sequence: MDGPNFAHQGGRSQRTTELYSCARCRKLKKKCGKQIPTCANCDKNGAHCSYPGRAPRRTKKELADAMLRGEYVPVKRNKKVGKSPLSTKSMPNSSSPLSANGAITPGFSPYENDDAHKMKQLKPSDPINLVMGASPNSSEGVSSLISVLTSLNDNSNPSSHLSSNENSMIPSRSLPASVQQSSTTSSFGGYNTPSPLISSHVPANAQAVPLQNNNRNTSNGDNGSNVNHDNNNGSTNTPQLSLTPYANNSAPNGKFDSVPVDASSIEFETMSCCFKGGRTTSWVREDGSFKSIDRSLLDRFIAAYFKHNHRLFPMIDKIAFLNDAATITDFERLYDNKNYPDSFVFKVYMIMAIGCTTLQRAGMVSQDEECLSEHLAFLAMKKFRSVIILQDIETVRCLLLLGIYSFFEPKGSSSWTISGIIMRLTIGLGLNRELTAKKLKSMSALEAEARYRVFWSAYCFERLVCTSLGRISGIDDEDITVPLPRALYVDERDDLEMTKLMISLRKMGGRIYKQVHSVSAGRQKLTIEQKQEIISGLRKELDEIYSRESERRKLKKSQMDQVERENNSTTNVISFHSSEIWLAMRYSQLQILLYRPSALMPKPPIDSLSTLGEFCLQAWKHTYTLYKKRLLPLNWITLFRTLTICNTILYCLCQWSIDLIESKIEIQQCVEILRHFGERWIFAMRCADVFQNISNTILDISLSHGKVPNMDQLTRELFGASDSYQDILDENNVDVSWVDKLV
Assay: PBM E-score (8-mer binding enrichment) (E-score (-0.5 to 0.5)); higher = stronger / more preferred TF binding; most listed sequences are background and not binding sites
Settings: protein concentration: 200 nM; construct: GST-full length
Outline: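 Detection of bound protein used fluorescent anti-GST, with scans normalised by masliner. The proteins were GST-tagged yeast transcription factors applied at about 100-200 nM to universal all-10-mer Agilent arrays made double-stranded by primer extension. Each ungapped eight-base word, pooled with its reverse complement, was scored with an E-score from the Universal PBM Analysis Suite.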

Sequence | PBM E-score
CCGCTCGC | 0.373
CAATGCTA | -0.228
CGTTTGCA | 0.0334
CTGTCGAA | -0.286
CAAGGAAC | 0.0348
AGGCCAAA | -0.132
GCTTAAGA | 0.104
AAGATTCG | -0.0384
AAAGCAAG | -0.0917
AGTGATAA | -0.0882
AGCTAACG | 0.00522
ACCAGAGA | -0.296
GTTAACGA | -0.155
ACTGGACG | 0.0439
CAGCTGGA | -0.205
GCACTAAA | 0.253
GGCGAATA | 0.15
GGAGTCAA | 0.039
AGATTGTC | 0.0766
TATGTCGA | -0.142
CTCGTTAC | -0.274
CTCTGCGA | -0.185

Sequence | PBM E-score
AAATACGT | -0.0651
CTTGTCTA | -0.11
AACGAACG | -0.0159
AAGGCTCC | -0.0559
CCGACCCC | 0.247
AGATCCCA | -0.136
AGACGCTC | -0.162
CTATCACC | 0.216
CTTCTTGA | -0.201
CTTTACAA | -0.00901
CAAAAATG | -0.116
CCTGACGC | -0.0414
AAAGGTTG | -0.192
AGGACAGG | -0.0724
CTATTTGA | -0.00364
AACTAGGA | -0.00297
CCCACCCA | 0.115
TAATGTCA | -0.0133
GAAGATAC | -0.0172
AGTATTAT | -0.33
AACTATGG | -0.0418
GCTAGGCC | 0.102

Sequence | PBM E-score
AGAACTTC | -0.167
GCAGGCGA | -0.252
GACAGGTC | -0.0535
TAAATAAA | 0.0938
CAGCGTTA | -0.0407
ACTAAGTA | -0.00117
AGGTATGC | -0.0441
AAGGGCGC | 0.0221
CCGGCCAC | 0.3
CATCTACC | 0.111
ATAGTGCG | 0.0882
AACACGGA | 0.258
ACAGTAAC | 0.0245
GGCACGCA | -0.00378
CCCCTAGC | -0.119
CACTGCTA | -0.187
ACGCGGGG | 0.348
CGTCCGAG | 0.147
AACTAGTG | -0.167
AGACCTAG | -0.251
AGTCGGGG | 0.363
CAATCCTA | -0.147

Sequence | PBM E-score
GGCTGACC | -0.309
ATAGGCGA | -0.188
CGTTAGTA | -0.0512
GATAACCA | -0.013
AACAATCG | -0.0578
CGGTCTAC | 0.0908
TCGGAGAA | 0.293
ACTGGGGC | -0.203
CGACGAGC | -0.013
CCTTAAGC | -0.0951
AGGACATG | -0.118
TCGAGCAA | -0.0922
GCCCAGGC | -0.122
ACTGCAAT | -0.0526
ACCACTGG | -0.0889
CGCCGAAG | 0.244
CGACCACA | -0.112
AGCAGCAG | -0.0757
GACGCGCC | -0.0077
ACTCGCGA | -0.151
